Reference: the BET-seq Pho4 binding data (Le et al. 2018)
Some of the results follow. Values were computed here from the reads of four pooled replicates and scatter widely.

The sequences below were run against T1, Pho4 (S. cerevisiae) (UniProt P07270) (assay: relative binding free energy (BET-seq); higher = weaker binding). Details: reference: library average.
T1 sequence: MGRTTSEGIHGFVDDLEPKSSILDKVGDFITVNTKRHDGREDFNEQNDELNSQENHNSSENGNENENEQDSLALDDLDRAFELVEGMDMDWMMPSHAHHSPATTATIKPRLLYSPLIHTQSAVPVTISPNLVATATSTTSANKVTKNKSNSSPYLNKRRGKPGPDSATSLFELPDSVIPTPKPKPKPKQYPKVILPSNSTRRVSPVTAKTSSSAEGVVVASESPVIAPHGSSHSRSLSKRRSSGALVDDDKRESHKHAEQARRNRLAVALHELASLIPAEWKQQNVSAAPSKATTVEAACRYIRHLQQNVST

Relative binding free energy, 0.07 kcal/mol:
GGGTCCACGTGGCTGT
ATGTGCACGTGATGCT
GGAGGCACGTGATTTG

Relative binding free energy, -0.32 kcal/mol:
GGTACCACGTGGGTGT

Relative binding free energy, 0.06 kcal/mol:
TTCGTCACGTGCATGT
TGTAGCACGTGTTAGT

Relative binding free energy, 0.26 kcal/mol:
AAATTCACGTGCGTAT
AATTTCACGTGAGCGG
GGTTTCACGTGGTATG
GGCGACACGTGTGGAT
TTACTCACGTGTAGTA
TGATTCACGTGCGGAA
GCTGTCACGTGAGTAG

Relative binding free energy, 0.13 kcal/mol:
CGAGTCACGTGCGGCG
TGTATCACGTGGTCCG
TTAGTCACGTGTTTGT
CTAGCCACGTGATGGT
ATCAGCACGTGAGGTG

Relative binding free energy, 0.35 kcal/mol:
TTGTTCACGTGGAAGG
CGGTTCACGTGTGCGC
CAGTTCACGTGATGGG

Relative binding free energy, -0.1 kcal/mol:
GTGCGCACGTGTTTGC
GTTGACACGTGGGAGA
TCTGGCACGTGTGTTG
TAAAGCACGTGGTTTG
ATTGGCACGTGTTAAA
TGGTGCACGTGGGAGG
AGGCGCACGTGGAGTT

Relative binding free energy, -0.06 kcal/mol:
AGTGTCACGTGGGGAA
TGTAACACGTGGGAGA
TTTAACACGTGGTTGT
TGATGCACGTGGGCAA
CGCGTCACGTGGGGAA
TATGTCACGTGGGTTC

Relative binding free energy, -0.18 kcal/mol:
GAAAGCACGTGGAGGT
GTAGGCACGTGGTTAC
TTTGGCACGTGCATAG
AGTCGCACGTGGTGAT

Relative binding free energy, 0 kcal/mol:
GGGGGCACGTGACGAA
GGGGACACGTGTTCGG
GTTGGCACGTGTGAAA
GGGGCCACGTGTTGAG
TGGCGCACGTGTTAGT
AGGAACACGTGGTGGT

Relative binding free energy, -0.17 kcal/mol:
GGAGGCACGTGGTAAT
TTTGGCACGTGGGGTT

Relative binding free energy, -0.01 kcal/mol:
TCTGTCACGTGGTTTG
AAATACACGTGTTGTG
GTGCGCACGTGCTTGG
TTACGCACGTGTGGTA
TAAGGCACGTGTGACG
TGGCGCACGTGCAGTT

Relative binding free energy, -0.11 kcal/mol:
TCTACCACGTGGGTTG
TTAGGCACGTGGGAGT
TTAACCACGTGTTTGT
TTTGCCACGTGTTAGG
TATCGCACGTGGCAGG

Relative binding free energy, 0.12 kcal/mol:
GTGCGCACGTGTGGTC
ATTTGCACGTGTAATC
ACGGTCACGTGGGAAA
AGAATCACGTGATGTG

Relative binding free energy, 0.27 kcal/mol:
TTAGTCACGTGATTTG
CGTTTCACGTGCGGTG
TGGATCACGTGTTAAG

Relative binding free energy, -0.22 kcal/mol:
GGGACCACGTGGGAGT

Relative binding free energy, 0.17 kcal/mol:
AGTATCACGTGTTTCT
AGTAACACGTGAGGCT
ATATGCACGTGAATGA
ATTGACACGTGAGGAT

Relative binding free energy, 0.32 kcal/mol:
GTGGACACGTGAGTTT

Relative binding free energy, 0.16 kcal/mol:
TACGGCACGTGTTCGT
TTGTTCACGTGCTTAT
TCGGACACGTGATGGG
AGTGTCACGTGACGCG
ACTTTCACGTGGGCTT

Relative binding free energy, 0.14 kcal/mol:
GGAACCACGTGTGTAT
TTGTGCACGTGCGATG

Relative binding free energy, 0.37 kcal/mol:
GGAGTCACGTGACTTT
GGTTCCACGTGAGGAG
ATTTTCACGTGAATTT

Relative binding free energy, 0.18 kcal/mol:
GCCTTCACGTGGTTGG
ATATTCACGTGGTGGA
AGTGGCACGTGAGACG
GTATTCACGTGATCGT
TATTTCACGTGGTAAG

Relative binding free energy, 0.08 kcal/mol:
AGTGTCACGTGTATGC
AAAGGCACGTGGAAAG

Relative binding free energy, 0.29 kcal/mol:
TTGGTCACGTGATTCG
TGTTTCACGTGGAAAG

Relative binding free energy, -0.14 kcal/mol:
TGGGGCACGTGGTATC
CTGGGCACGTGGTGAT
AATGTCACGTGGGCTA
TTGTGCACGTGCAGGT

Relative binding free energy, -0.2 kcal/mol:
ACGGGCACGTGCGTGG

Relative binding free energy, -0.13 kcal/mol:
TCTGCCACGTGGCGGG
GGGGGCACGTGTGCCA

Relative binding free energy, -0.23 kcal/mol:
ATTGGCACGTGGGCAC

Relative binding free energy, -0.08 kcal/mol:
CGTGTCACGTGGGCGA
AGGTACACGTGGGTGA
ATGAGCACGTGTATTG

Relative binding free energy, 0.33 kcal/mol:
CGTATCACGTGTAATG
TTGATCACGTGAGGAA
TTATTCACGTGTGTTC

Relative binding free energy, 0.2 kcal/mol:
TTTGCCACGTGAATGT
TGATTCACGTGGGACG
TTGGTCACGTGTTGAA
TACGGCACGTGAGATT
TATTTCACGTGCAAGG
CGGTTCACGTGCATGG

Relative binding free energy, -0.28 kcal/mol:
TTAGACACGTGGTGCG

Relative binding free energy, 0.45 kcal/mol:
TAGAACACGTGAAAGG
ACTTTCACGTGAATTT

Relative binding free energy, 0.05 kcal/mol:
ATAGACACGTGGCGTG
ATGAACACGTGTAGGT
AGCGGCACGTGATTTG
TTATGCACGTGTGTTT
GGTTGCACGTGTTGCC
GCGGTCACGTGGTATG

Relative binding free energy, 0.02 kcal/mol:
TAATGCACGTGTCGGG
ATTTGCACGTGTCGTA

Relative binding free energy, -0.02 kcal/mol:
TCGGGCACGTGTATCG
GCGGGCACGTGGGTCC
TTGTGCACGTGGCTGA
CGAGGCACGTGTGGAG
TGGGACACGTGTATCT
TGTTACACGTGCGATT
TGGGACACGTGGCTTG
GGTTGCACGTGTGGCA

Relative binding free energy, -0.21 kcal/mol:
ACGTGCACGTGGGTCA
AAGTGCACGTGGGGAA

Relative binding free energy, -0.16 kcal/mol:
GGTTGCACGTGGGTAG
GGACGCACGTGGGGAT
AGGTGCACGTGTACAG

Relative binding free energy, -0.04 kcal/mol:
ATATACACGTGCGGGG
AGTAGCACGTGTTTTC
GGGTACACGTGGGTGG
TTATACACGTGTTTTC
GGCGACACGTGGGGTG
TTGGGCACGTGTCAGA
CTGTCCACGTGGTGGT
TGGGGCACGTGTGAGA
TAGTGCACGTGTTGAT

Relative binding free energy, -0.09 kcal/mol:
CGGGGCACGTGTGTAG
TTAGGCACGTGTGTTT
TTATGCACGTGGATTG

Relative binding free energy, 0.11 kcal/mol:
ATCTACACGTGGAGGT

Relative binding free energy, -0.33 kcal/mol:
TTCGGCACGTGGGTCA

Relative binding free energy, -0.05 kcal/mol:
AATGGCACGTGTATGA

Relative binding free energy, 0.09 kcal/mol:
GGTCTCACGTGGGAGG
GATAACACGTGGTATG
GTTCACACGTGTAGTT
TTAATCACGTGGGTCT

Relative binding free energy, 0.22 kcal/mol:
TTTAGCACGTGATATT
GGTCTCACGTGGTGGG
GGTAACACGTGCGATG

Relative binding free energy, 0.19 kcal/mol:
TATTCCACGTGAGGGT
GTGGTCACGTGGGAAT
TGTGACACGTGAGGTT

Relative binding free energy, 0.03 kcal/mol:
TGAAGCACGTGTGGAC
ACTGACACGTGTGTGT
ATGGACACGTGCTTAG

Relative binding free energy, 0.15 kcal/mol:
GTTGACACGTGATCGG
GGCATCACGTGTGGTA
TGGCGCACGTGAGTAA
GGCTGCACGTGTGGAG
TTAAACACGTGGATGG

Relative binding free energy, -0.26 kcal/mol:
ATCAGCACGTGGGTTG
TTGAGCACGTGGGCGT

Relative binding free energy, 0.01 kcal/mol:
GTCGGCACGTGTGGTA
AGTTGCACGTGGTTGG
GGGCGCACGTGTTTAG
TCGGACACGTGTGGGC
GGATACACGTGGAGTG
GATTGCACGTGGTTGT
TTGTGCACGTGTTCGG

Relative binding free energy, -0.12 kcal/mol:
TTTCGCACGTGGGTTG
TGTCGCACGTGTTTAA
ATTAACACGTGTTTTA
ATGGGCACGTGCTATG
TCGTACACGTGGGATG

Relative binding free energy, -0.25 kcal/mol:
TGTAGCACGTGGGACA
TAGGGCACGTGCGTGA

Relative binding free energy, 0.24 kcal/mol:
TGCATCACGTGATTTA
GTTAGCACGTGAGAGC
ATTGTCACGTGTAAAT
TAGATCACGTGTATAG
AGTCGCACGTGAGTGG

Relative binding free energy, 0.31 kcal/mol:
GCGGTCACGTGTAGCG
TTTCTCACGTGGTTTC
GGACGCACGTGAGGGC

Relative binding free energy, 0.04 kcal/mol:
ATTCGCACGTGTGTCG
GGGTCCACGTGTATGT
TAGATCACGTGTATTG
TGTAACACGTGTTGCT
TTTCGCACGTGGACGG
GGCGGCACGTGTAAAG

Relative binding free energy, 0.28 kcal/mol:
TATTTCACGTGCAAGT
GGCTACACGTGAGGTT
GAGTTCACGTGTCATT

Relative binding free energy, 0.23 kcal/mol:
ATTTTCACGTGGGAAG
GATGTCACGTGTTAGT

Relative binding free energy, -0.03 kcal/mol:
AGAGCCACGTGTTAGT
TTTATCACGTGTACAT
GGGTCCACGTGTGTAA
CGTGGCACGTGACTTG
CGTGGCACGTGTACGG
GTGCGCACGTGTAGGG

Relative binding free energy, -0.15 kcal/mol:
TTATGCACGTGTTCTT
GTAAGCACGTGGGCTG
TTGCCCACGTGGTGGT
CATGGCACGTGCGTTT

Relative binding free energy, 0.3 kcal/mol:
GATTTCACGTGTTGAT

Relative binding free energy, 0.21 kcal/mol:
TCCGTCACGTGTTGTT
TGGCTCACGTGTGTAA
ATATTCACGTGTTTTT
GACGGCACGTGAATGG

Relative binding free energy, 0.48 kcal/mol:
GTTTACACGTGAAAAG

Relative binding free energy, 0.1 kcal/mol:
GGATGCACGTGGAGCA
ATGGGCACGTGTTGCC
TTCAACACGTGTGTAA
GGTTGCACGTGATGCA
TGTGCCACGTGAGTGC
AGTTACACGTGGTTAG

Relative binding free energy, 0.36 kcal/mol:
GGATTCACGTGAAGAT

Relative binding free energy, 0.25 kcal/mol:
AATTTCACGTGAGTGC
TCGATCACGTGGTTGA
TGAATCACGTGTGAGG
AGGTTCACGTGTTGTG
TTCATCACGTGTAGGT

Relative binding free energy, -0.19 kcal/mol:
TGGGCCACGTGGGGTT
